The values below come from the supplement of paper PMC4604168 (melanoma cell lines).

The other results are listed elsewhere or left out. Most values come without repeats; read them as rough.
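Further: cells treated in 1,536-well plates, then fixed and DAPI-stained, with nuclei counted from automated high-throughput microscope images.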

For this assay, the system named is A2058. In words: cell count relative to DMSO control; melanoma cells; higher = more viable cells. The conditions noted are these: library dose: standard library concentration; 72 h; first compound 2 µM.
`C[C@@H](N)c1ccc(C(=O)Nc2ccnc3[nH]ccc23)cc1` + CC(C)C[C@H](NC(=O)[C@H](Cc1ccccc1)NC(=O)c1cnccn1)B(O)O [Bortezomib] (partner dose 0.005 µM) came in with a cell count of 7.68%.

The molecule `CCCCCCCCCCCCCCCCCCOP(=O)([O-])OC1CC[N+](C)(C)CC1` [Perifosine] + COc1cc2c(Oc3ccc4[nH]c(C)cc4c3F)ncnc2cc1OCCCN1CCCC1 [cediranib] (partner dose 2 µM) yielded a cell count of 103%.

Regarding `Cn1sc(=O)n(Cc2ccccc2)c1=O` + COc1cc2c(Oc3ccc4[nH]c(C)cc4c3F)ncnc2cc1OCCCN1CCCC1 [cediranib] (partner dose 2 µM), the cell count amounted to 95%.

In turn, `C[C@@H](N)c1ccc(C(=O)Nc2ccnc3[nH]ccc23)cc1` + Clc1ccc(Nc2nnc(Cc3ccncc3)c3ccccc23)cc1 [vatalanib] (partner dose 10 µM) showed a cell count of 62.4%.

For the molecule `CCCCCCCCCCCCCCCCCCOP(=O)([O-])OC1CC[N+](C)(C)CC1` [Perifosine] + CC(C)(C)c1cnc(CSc2cnc(NC(=O)C3CCNCC3)s2)o1 [SNS-032] (partner dose 0.05 µM), the cell count is 62.6%.

In turn, `CCCCCCCCCCCCCCCCCCOP(=O)([O-])OC1CC[N+](C)(C)CC1` [Perifosine] + CNC(=O)c1cc(Oc2ccc(NC(=O)Nc3ccc(Cl)c(C(F)(F)F)c3)cc2)ccn1 [sorafenib] (partner dose 2 µM) returned a cell count of 101%.

In turn, `CCCCCCCCCCCCCCCCCCOP(=O)([O-])OC1CC[N+](C)(C)CC1` [Perifosine] + COc1cc(Nc2ncc(F)c(Nc3ccc4c(n3)NC(=O)C(C)(C)O4)n2)cc(OC)c1OC [Tamatinib] (partner dose 2 µM) gave a cell count of 40.9%.

As to `C[C@@H](N)c1ccc(C(=O)Nc2ccnc3[nH]ccc23)cc1` + C[C@@H]1CCN(C(=O)CC#N)C[C@@H]1N(C)c1ncnc2[nH]ccc12 [CP690550] (partner dose 5 µM), the cell count is 84.1%.

With `C[C@@H](N)c1ccc(C(=O)Nc2ccnc3[nH]ccc23)cc1` + O=C(O)c1ccc2c(c1)nc(Nc1cccc(Cl)c1)c1ccncc12 [CX4945] (partner dose 2 µM), the cell count is 49.7%.

Regarding `CCCCCCCCCCCCCCCCCCOP(=O)([O-])OC1CC[N+](C)(C)CC1` [Perifosine] + CC(C)C[C@H](NC(=O)[C@H](Cc1ccccc1)NC(=O)c1cnccn1)B(O)O [Bortezomib] (partner dose 0.005 µM), the cell count turned out to be 9.55%.

`Cn1sc(=O)n(Cc2ccccc2)c1=O` + CC(C)C[C@H](NC(=O)[C@H](Cc1ccccc1)NC(=O)c1cnccn1)B(O)O [Bortezomib] (partner dose 0.005 µM): the cell count is 17.3%.

`CCCCCCCCCCCCCCCCCCOP(=O)([O-])OC1CC[N+](C)(C)CC1` [Perifosine] + O=C(/C=C/c1cccnc1)NCCCCC1CCN(C(=O)c2ccccc2)CC1 [FK866] (partner dose 0.05 µM) showed a cell count of 130%.

On to `Cn1sc(=O)n(Cc2ccccc2)c1=O` + Cc1nc(Nc2ncc(C(=O)Nc3c(C)cccc3Cl)s2)cc(N2CCN(CCO)CC2)n1 [dasatanib] (partner dose 0.02 µM), for which the cell count was 73.4%.

`Cn1sc(=O)n(Cc2ccccc2)c1=O` + Cc1ccc(NC(=O)c2cccc(N(C)C)c2)cc1NC(=O)c1ccc(O)cc1 [ZM336372] (partner dose 10 µM) yielded a cell count of 90.6%.

In turn, `CCCCCCCCCCCCCCCCCCOP(=O)([O-])OC1CC[N+](C)(C)CC1` [Perifosine] + CC(=O)O[C@@]12CO[C@@H]1C[C@H](O)[C@@]1(C)C(=O)[C@H](O)C3=C(C)[C@@H](OC(=O)[C@H](O)[C@@H](NC(=O)OC(C)(C)C)c4ccccc4)C[C@@](O)([C@@H](OC(=O)c4ccccc4)[C@H]21)C3(C)C [Docetaxel] (partner dose 0.0005 µM) gave a cell count of 12%.

Molecule `Cn1sc(=O)n(Cc2ccccc2)c1=O` + O=C(CCCCCCC(=O)Nc1ccccc1)NO [vorinostat] (partner dose 0.4 µM) came in with a cell count of 87.5%.

Regarding `Cn1sc(=O)n(Cc2ccccc2)c1=O` + NC1(c2ccc(-c3nc4ccn5c(=O)[nH]nc5c4cc3-c3ccccc3)cc2)CCC1 [MK2206] (partner dose 2 µM), the cell count was determined as 79.2%.

The molecule `C[C@@H](N)c1ccc(C(=O)Nc2ccnc3[nH]ccc23)cc1` + C[C@]1(O)C[C@@H](c2nc(-c3ccc4ccc(-c5ccccc5)nc4c3)c3c(N)nccn32)C1 [OSI906] (partner dose 2 µM) displayed a cell count of 86.6%.

Molecule `C[C@@H](N)c1ccc(C(=O)Nc2ccnc3[nH]ccc23)cc1` + CN1CCN(c2ccc3nc(-c4c(N)c5c(F)cccc5[nH]c4=O)[nH]c3c2)CC1 [Dovitinib] (partner dose 0.5 µM) yielded a cell count of 14.4%.

`C[C@@H](N)c1ccc(C(=O)Nc2ccnc3[nH]ccc23)cc1` + CS(=O)(=O)CCNCc1ccc(-c2ccc3ncnc(Nc4ccc(OCc5cccc(F)c5)c(Cl)c4)c3c2)o1 [lapatinib] (partner dose 4 µM) had a cell count of 73.2%.

As for `C[C@@H](N)c1ccc(C(=O)Nc2ccnc3[nH]ccc23)cc1` + COc1cc2c(Oc3ccc4[nH]c(C)cc4c3F)ncnc2cc1OCCCN1CCCC1 [cediranib] (partner dose 2 µM), the cell count stood at 57.5%.

`CCCCCCCCCCCCCCCCCCOP(=O)([O-])OC1CC[N+](C)(C)CC1` [Perifosine] + C[C@@H]1CCN(C(=O)CC#N)C[C@@H]1N(C)c1ncnc2[nH]ccc12 [CP690550] (partner dose 5 µM): the cell count was 65%.

As for `C[C@@H](N)c1ccc(C(=O)Nc2ccnc3[nH]ccc23)cc1` + C#Cc1cccc(Nc2ncnc3cc(OCCOC)c(OCCOC)cc23)c1 [erlotinib] (partner dose 4 µM), the cell count was 53%.

On to `CCCCCCCCCCCCCCCCCCOP(=O)([O-])OC1CC[N+](C)(C)CC1` [Perifosine] + CO[C@H]1C[C@@H]2CC[C@@H](C)[C@@](O)(O2)C(=O)C(=O)N2CCCC[C@H]2C(=O)O[C@H]([C@H](C)C[C@@H]2CC[C@@H](OCCO)[C@H](OC)C2)CC(=O)[C@H](C)/C=C(\C)[C@@H](O)[C@@H](OC)C(=O)[C@H](C)C[C@H](C)/C=C/C=C/C=C/1C [everolimus] (partner dose 0.1 µM), for which the cell count is 82.1%.

As for `C[C@@H](N)c1ccc(C(=O)Nc2ccnc3[nH]ccc23)cc1` + COc1ccc(Cl)c(Nc2nc3ccccc3nc2NS(=O)(=O)c2cccc(NC(=O)C(C)(C)N)c2)c1 [XL147] (partner dose 4 µM), the cell count is 65.3%.

In the case of `CCCCCCCCCCCCCCCCCCOP(=O)([O-])OC1CC[N+](C)(C)CC1` [Perifosine] + C=CCn1c(=O)c2cnc(Nc3ccc(N4CCN(C)CC4)cc3)nc2n1-c1cccc(C(C)(C)O)n1 [MK1775] (partner dose 0.1 µM), the cell count was 72.2%.

`CCCCCCCCCCCCCCCCCCOP(=O)([O-])OC1CC[N+](C)(C)CC1` [Perifosine] + CN1CCN(c2ccc3nc(-c4c(N)c5c(F)cccc5[nH]c4=O)[nH]c3c2)CC1 [Dovitinib] (partner dose 0.5 µM) gave a cell count of 38.3%.

`Cn1sc(=O)n(Cc2ccccc2)c1=O` + CN(NC(=O)CC(=O)NN(C)C(=S)c1ccccc1)C(=S)c1ccccc1 [STA4783] (partner dose 0.03 µM) showed a cell count of 10.2%.

Consider `Cn1sc(=O)n(Cc2ccccc2)c1=O` + CO[C@@H]1[C@H](N(C)C(=O)c2ccccc2)C[C@H]2O[C@]1(C)n1c3ccccc3c3c4c(c5c6ccccc6n2c5c31)C(=O)NC4 [Midostaurin] (partner dose 0.4 µM), for which the cell count was 77.8%.

`Cn1sc(=O)n(Cc2ccccc2)c1=O` + C[C@]1(O)C[C@@H](c2nc(-c3ccc4ccc(-c5ccccc5)nc4c3)c3c(N)nccn32)C1 [OSI906] (partner dose 2 µM) gave a cell count of 119%.

As for `Cn1sc(=O)n(Cc2ccccc2)c1=O` + C#Cc1cccc(Nc2ncnc3cc(OCCOC)c(OCCOC)cc23)c1 [erlotinib] (partner dose 4 µM), the cell count came to 87.2%.

The molecule `C[C@@H](N)c1ccc(C(=O)Nc2ccnc3[nH]ccc23)cc1` + NC(=O)Nc1cc(-c2cccc(F)c2)sc1C(=O)N[C@H]1CCCNC1 [AZD7762] (partner dose 0.1 µM) displayed a cell count of 67.6%.

Regarding `Cn1sc(=O)n(Cc2ccccc2)c1=O` + Nc1cccc2c1CN(C1CCC(=O)NC1=O)C2=O [lenalidomide] (partner dose 5 µM), the cell count was 112%.

As to `Cn1sc(=O)n(Cc2ccccc2)c1=O` + Cc1cc(N2CCOCC2)cc2[nH]c(-c3c(NC[C@@H](O)c4cccc(Cl)c4)cc[nH]c3=O)nc12 [BMS536924] (partner dose 1 µM), the cell count came out at 77.8%.

In the case of `C[C@@H](N)c1ccc(C(=O)Nc2ccnc3[nH]ccc23)cc1` + Cn1sc(=O)n(Cc2ccccc2)c1=O [TDZD-8] (partner dose 2 µM), the cell count stood at 70.5%.

`CCCCCCCCCCCCCCCCCCOP(=O)([O-])OC1CC[N+](C)(C)CC1` [Perifosine] + C[C@@H](N)c1ccc(C(=O)Nc2ccnc3[nH]ccc23)cc1 [RKI983] (partner dose 2 µM) had a cell count of 64%.

`CCCCCCCCCCCCCCCCCCOP(=O)([O-])OC1CC[N+](C)(C)CC1` [Perifosine] + CCCS(=O)(=O)Nc1ccc(F)c(C(=O)c2c[nH]c3ncc(Cl)cc23)c1F [PLX4720] (partner dose 0.4 µM): the cell count was found to be 102%.

`CCCCCCCCCCCCCCCCCCOP(=O)([O-])OC1CC[N+](C)(C)CC1` [Perifosine] + Nc1ncn([C@H]2C[C@H](O)[C@@H](CO)O2)c(=O)n1 [decitabine] (partner dose 0.5 µM) came in with a cell count of 54.4%.

For the molecule `Cn1sc(=O)n(Cc2ccccc2)c1=O` + CNC(=O)c1cc(Oc2ccc(NC(=O)Nc3ccc(Cl)c(C(F)(F)F)c3)cc2)ccn1 [sorafenib] (partner dose 2 µM), the cell count came out at 90.4%.
